# In all, about 110,000 compounds went through this assay and about 230 (0.21%) showed an effect of 50% or more. This is one part of the list.
# Biological target: DPAP1 (Plasmodium falciparum, UniProt Q8IIJ9)
# Experiment: primary screen, percent inhibition; read by cleavage of a fluorogenic dipeptide substrate; higher = more effect of the substance
# Design: species or system P. falciparum D10 trophozoite lysates; single well
# 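Also: 30 min substrate incubation versus DMSO and 10 µM JCP410 controls.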
# DPAP1, sequence (Q8IIJ9 whole entry, looked up): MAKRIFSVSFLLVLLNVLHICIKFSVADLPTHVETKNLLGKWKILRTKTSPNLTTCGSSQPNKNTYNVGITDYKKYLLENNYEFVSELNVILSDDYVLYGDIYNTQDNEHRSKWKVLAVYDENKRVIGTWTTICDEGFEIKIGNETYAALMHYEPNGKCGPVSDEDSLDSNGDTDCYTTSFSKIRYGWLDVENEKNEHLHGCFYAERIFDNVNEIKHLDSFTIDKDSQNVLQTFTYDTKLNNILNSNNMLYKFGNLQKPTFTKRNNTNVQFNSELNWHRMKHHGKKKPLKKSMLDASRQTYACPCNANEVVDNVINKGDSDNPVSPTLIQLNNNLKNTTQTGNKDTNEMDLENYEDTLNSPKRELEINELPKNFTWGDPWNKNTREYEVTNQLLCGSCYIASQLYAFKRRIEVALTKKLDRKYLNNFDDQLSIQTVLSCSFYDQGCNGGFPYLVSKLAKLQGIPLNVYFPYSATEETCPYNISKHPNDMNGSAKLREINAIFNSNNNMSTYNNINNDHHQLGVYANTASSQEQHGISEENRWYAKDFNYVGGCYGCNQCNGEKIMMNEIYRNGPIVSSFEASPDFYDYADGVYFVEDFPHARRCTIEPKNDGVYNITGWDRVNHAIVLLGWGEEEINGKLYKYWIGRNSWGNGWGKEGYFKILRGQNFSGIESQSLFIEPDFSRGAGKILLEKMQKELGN
row,Compound,% Inhibition @ 10 uM [%]
1,CCc1ccccc1NC(=O)CN(c1c(C)cccc1C)S(C)(=O)=O,-0.297
2,Cc1ccccc1CCNCc1c(C(=O)O)c(C)n(Cc2ccccc2F)c1C,1.21
3,O=C(NC1C2CC3CC(C2)CC1C3)c1cccc(Cl)c1 (centres unmarked),13.2
4,CC(=O)c1nn(-c2ccc(OC(F)(F)F)cc2)nc1N1CCn2cnnc2C1,0.635
5,COc1ccc(C2C3=C(O)CC(C)(C)CC3=NC(C)=C2C(=O)N2CCCCC2)cc1Br (centres unmarked),5.66
6,CN1CCN(Cc2nnc(S)n2-c2cccc(F)c2)CC1,0.986
7,COc1ccc(C(=O)Nc2ccc(F)cc2)c(OC)c1,2.65
8,Cc1ccc(CNC(=O)Cn2nnc(C(=O)NCc3ccc(F)cc3)c2N)cc1,-3.35
9,CC1CCCN(C(=O)c2ccc(Cl)cc2Cl)C1 (centres unmarked),-2.6
10,O=C1CSC(c2ccccc2)N1c1nnc(C23CC4CC(CC(C4)C2)C3)s1 (centres unmarked),-2.65
11,CC1CCN(C(=O)CN(C)S(=O)(=O)c2ccc(Cl)cc2)CC1,5.12
12,O=C(Nc1ccccc1)c1cccc(S(=O)(=O)NCc2ccccc2)c1,-1.77
13,CCc1nc2ccccc2c(=O)n1Cc1ccccc1,1.96
14,COc1ccc(C2=NOC(=O)C2)cc1,-4.59
15,Cc1ccccc1C1C(C#N)=C(N)Oc2n[nH]c(C(C)C)c21 (centres unmarked),0.343
16,N#Cc1ccc(Oc2ccccc2N2C(=O)C3C4C=CC(C4)C3C2=O)cc1 (centres unmarked),4.57
17,O=C(CCc1ccccc1)Nc1cccc(NC(=O)CCc2ccccc2)n1,2.03
18,COc1ccc(-c2nc(C#N)c(NCc3ccco3)o2)cc1,-3.23
19,Brc1ccc2nc3c(n2c1)CCCC3,3.31
20,CCOC(=O)c1cnc(-c2ccccc2)nc1O,-2.83
21,COC(=O)C1C(c2ccccc2)=NN(c2ccccc2)C1C(=O)OC (centres unmarked),-6.52

row,Compound,% Inhibition @ 10 uM [%]
1,C=CCOc1ccccc1/C=c1/sc2nc(=O)c(Cc3ccc(F)cc3)nn2c1=O,1.02
2,CCOC(=O)N1CCC(NCc2c(C(=O)O)c(C)n(Cc3ccc(F)cc3)c2C)CC1,-5.72
3,CCOC(=O)Nc1ccc(-c2cccc(CC(CS(=O)(=O)Cc3ccccc3OC(F)F)C(=O)NCC#N)c2)cc1 (centres unmarked),-3.49
4,COc1ccc(C(=O)Nc2nnc(S(=O)(=O)N(C)Cc3ccc(F)cc3)s2)cc1OC,3.74
5,c1ccc(CC2CCN(Cc3c[nH]c4ccccc34)CC2)cc1,2.33
6,CN(C)S(=O)(=O)c1ccc(C(=O)NCCn2ccc3ccccc32)cc1,-0.396
7,Cc1cc(C)c2c(-n3cccc3)c(C(=O)N3CCN(Cc4ccc5c(c4)OCO5)CC3)sc2n1,2.27
8,COc1ccc(-n2nc3c(N4CCC(C(=O)NC5CCCCCC5)CC4)nnc(C)c3c2C)cc1,2.92
9,O=C(NCCCc1ccccc1)[C@H](CS(=O)(=O)Cc1ccccc1OC(F)F)NC(=O)N1CCOCC1,1.61
10,Cc1ccc(-c2nnc3n2C(C)(C)Cc2ccccc2-3)cc1,-4.98
11,CC1=C(c2c(C)sc(C)c2C(=O)O)C(C)CCC1 (centres unmarked),4.83
12,O=C(CCc1ccc(S(=O)(=O)NCc2ccccc2)cc1)Nc1ccc2c(c1)OCCO2,-3.43
13,O=C(NC1CCCCC1)c1cccc2c1C(=O)N(CC1CCCO1)C2 (centres unmarked),-2.83
14,CCOC(=O)C1=C(C)NC(=O)NC1c1ccc(O)c(OC)c1 (centres unmarked),3.31
15,CCOC(=O)c1sc2nc(CSc3nc(C)cc(O)n3)cc(=O)n2c1C,-0.495
16,Cc1ccc(C)c(NC(=O)CN(c2ccc(F)cc2)S(C)(=O)=O)c1,-3.39
17,c1ccc2cc3c(Nc4ccc(N5CCCCC5)cc4)ccnc3cc2c1,6.48
18,CC(C)(C)c1ccc(C(=O)NCc2cccs2)cc1,3.53
19,CCCn1c2ccccc2c2cnn(CC(=O)NC(C)c3ccccc3)c(=O)c21 (centres unmarked),-3.47
20,O=C1C(Sc2nc[nH]n2)=C/C(=N/S(=O)(=O)c2cccs2)c2ccccc21,10.8
21,CCOC(=O)N1CCC(N2CCc3ccccc3C2)CC1,-3.27

row,Compound,% Inhibition @ 10 uM [%]
1,O=C1Cc2ccccc2C(c2ccc(Cl)cc2Cl)N1 (centres unmarked),-3.14
2,COc1ccc(NC(=O)NC(C)c2ccccc2)cc1 (centres unmarked),-2.03
3,COc1ccc(-c2cc3c(=O)n(CC(=O)NC(C)C45CC6CC(CC(C6)C4)C5)ncn3n2)cc1 (centres unmarked),2.27
4,O=C(O)c1ccc(NS(=O)(=O)c2cccc(S(=O)(=O)c3ccccc3)c2)cc1,11.9
5,Cc1cccc(Oc2nc3ccccn3c(=O)c2/C=C(\C#N)C(=O)N2CCOCC2)c1C,0.315
6,Cc1ccccc1OCCn1c(SC(C)C(=O)O)nc2c(N)ncnc21 (centres unmarked),-2.21
7,CCC(Sc1nc2nnc(C)c-2c(N)n1-c1ccccc1C)C(=O)N1CCCC1 (centres unmarked),-0.458
8,Cc1ccc(/C=C/C(=O)N(Cc2ccccc2F)C2CCS(=O)(=O)C2)cc1 (centres unmarked),-1.35
9,CCCCSC1=C(C#N)C(=O)NC(c2ccc(O)c(OC)c2)S1 (centres unmarked),4.93
10,O=C(NCCc1ccccc1)c1ccccc1NS(=O)(=O)c1ccc(Cl)cc1,-3.16
11,CCOC(=O)C1=C(CN2CCC(Cc3ccccc3)CC2)NC(=O)NC1c1ccc(Cl)cc1 (centres unmarked),-4.69
12,CCOC(=O)N1CCN(S(=O)(=O)c2ccc(-c3cc(C)no3)cc2)CC1,-2.56
13,CC1=C(C)C[C@H](C(=O)O)[C@@H](C(=O)O)C1,1.63
14,Nc1nnc(-c2cc(-c3ccc(O)cc3)on2)o1,-3.53
15,NC(=O)Nc1ccccc1C(=O)NCc1ccccc1,-4.52
16,Cc1cc2oc(C(=O)NC3CCS(=O)(=O)C3)c(C)c2cc1C (centres unmarked),-4.66
17,CCC1CCCCN1Cc1ccc(CNC(=O)c2cc3ccc4cccnc4c3[nH]2)o1 (centres unmarked),1.75
18,O=C(CN(c1ccccc1)S(=O)(=O)c1ccccc1)N1CCc2ccccc2C1,-3.19
19,C=CCOc1ccc(-n2c(C)cc(/C=C3\NC(=O)NC3=O)c2C)cc1,4.11
20,CC[C@H](NC(=O)[C@H](Cc1nccs1)NC(=O)c1ccc(-c2ccccc2Cl)cc1)C(=O)c1nc2ccccc2o1,-0.207
